Measured values taken from the RNAGym collection of RNA variant scans (doi:10.1073/pnas.2313332121).
This sample is rich in variants without activity.

B1: TPR 5TU (parent)
chain: GGAUCUUCUCGAUCUAACAAAAAAGACAAAUCUGCCACAAAGCUUGAGAGCAUCUUCGGAUGCAGAGGCGGCAGCCUUCGGUGGCGCGAUAGCGCCAACGUUCUCAACUAUGACACGCAAAACGCGUGCUCCGUUGAAUGGAGUUUAUCAUG

Variants of: B1
Assay: polymerase ribozyme fitness, log enrichment relative to wild type (log ratio); higher = more active; in vitro selection for triplet polymerase activity
Summary of the method: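 Mutant libraries of each subunit of a heterodimeric triplet polymerase ribozyme were built by PCR and transcribed. Each library went through one round of in vitro selection in triplicate: annealing with biotinylated primer, partner subunit and triplets, frozen incubation at −7 °C, gel excision of extended constructs, streptavidin-bead capture and RT-PCR. Input and output libraries were Illumina-sequenced; only genotypes with ≥10 input reads and ≥1 read per output were kept. Fitness is log2(genotype enrichment/wild-type enrichment), using inverse-variance-weighted replicate averages.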

Variant	polymerase ribozyme fitness (log ratio)
GGAUCUUCUCGAUCUAACAAAAAAGACAAAUUUGCCACAAAGCUUGAGAGCAUCUUCGGAUGCAGAGGCGGCAGCCUUCGGUGGCGUGAUAGCGCCAACUUUCUCAACUAUGACGCGCAAAACGCGUGCUCCGUUGAAUGGAGUUUAUCAUG [C32U C87U G100U A115G]	≤ -4.2
GGAUCUUCUCGAUCUAACAAAAAAGACAAAUUUGCCACAAAGCUUGAGAGCAUCUUCGGAUGCAGAGGCGGCAGCCUUCGGUGGCGCGAUAGCGCCAACGUUCUCAACUAUGACAGGCAAAACGCGUGCUCCGUAGAAUCGAGUUUAUCAUG [C32U C116G U135A G140C]	≤ -4.2
GGAUCUUCUCGAUCUAACAAAAAAGACAAAUUUGCCACAAAGCUUGAGAGCAUCUUCGGAUGCAGAGGCGGCAGCCUUCGGUGGCGCGAUAGCGCCAACGUUCUCAACUAUGACACGUAAAACGCGUGCUCCCUUGAAUGGAGUUUAUCAUG [C32U C118U G133C]	-2.99
GGAUCUUCUCGAUCUAACAAAAAAGACAAAUUUGCCACAAAGCUUGAGAGCAUCUUCGGAUGCAGAGGCGGCAGCCUUCGGUGGCGCGAUAGCGCCAACGUUCUCAACUAUGACACGCAAAACGUGUGCUCCGUUGAAUGGAGUUUAUCAUG [C32U C125U]	-2.22
GGAUCUUCUCGAUCUAACAAAAAAGACAAAUUUGCCACAAAACUUGAGACCAUCUUCGCAUGCAGAGGCAGCAGCCUUCGGAGGCACGAUAGCGCCAACGUUCUCAACUAUGACACGCAAAACGCGUGCUCCGUUGAGUGGAGUUUAUCAUG [C32U G42A G50C G59C G70A U82A G86A A138G]	≤ -4.2
GGAUCUUCUCGAUCUAACAAAAAAGACAAAUUUGCCACAAAGCUUGACAGCAUCUUCGGAUGCUGAGGCGGCAGCCUUCGGUGGCGCGAUAGCGCCAACGUUCUCAACUAUGACACGCAAAACGCGUGCUCCGUUGAAUGGAGUUUAUCAUG [C32U G48C A64U]	≤ -4.2
GGAUCUUCUCGAUCUAACAAAAAAGACAAAUUUGCCACAAAGCUUGAGAGCAUCUUCAGAUGCAGAGGCGGCAGCCUUCGGUGGCGAGAUAUCGCCAACGUUCUCAACUAUGACAUGCAAAACGCGUGCUCCGUUGAACGGAGUUUAUCAUG [C32U G58A C87A G92U C116U U139C]	≤ -4.2
GGAUCUUCUCGAUCUAACAAAAAAGACAAAUUUGCCACAAAGCUUGAGAGCAUCUUCGUAUGCAGAGGCGGCAGCCUUCGAUGGCGCGAUAGCGCCAACGUUCUCAACUAUGACACGCAAAACGCGUGCUCCGUUGAAUGGAGUUUAUCAUG [C32U G59U G81A]	-3.13
GGAUCUUCUCGAUCUAACAAAAAAGACAAAUUUGCCACAAAGCUUGAGAGCAUCUUCGGAUGCACAGGCGGCAGCCAUCGGUGGCGGGACAGCGCCAACGUUCUCAACUAUGAAACGCAAAACGCGUGCUCCGUUGAAUGGAGUUUAUCAAG [C32U G65C U77A C87G U90C C114A U151A]	≤ -4.2
GGAUCUUCUCGAUCUAACAAAAAAGACAAAUUUGCCACAAAGCUUGAGAGCAUCUUCGGAUGCAGAGGCGCCAUCCUUCGGUGGCGCGAUAGCGCCAACGUUCUCAACUAUGACACGCAAAACGCGUGCUCCGUUGAAUGGAGUUUAUCAUG [C32U G71C G74U]	≤ -4.2
GGAUCUUCUCGAUCUAACAAAAAAGACAAAUUUGCCACAAAGCUUGAGAGCAUCUUCGGAUGCAGAGGCGGCAACCUUCGGUGGCGCCAUAGCGCCAACGUUCUCAACUAUGACACGCAAAACGCGUGCUCCGUUGAAUAUAGUUUAUCAUG [C32U G74A G88C G140A G141U]	≤ -4.2
GGAUCUUCUCGAUCUAACAAAAAAGACAAAUUUGCCACAAAGCUUGAGAGCAUCUUCGGAUGCAGAGGCGGCAGCCUUCGGUUGCGCGAUAGCGCCAACGUUCUCAACUAUGACACGCAAAACGCAUGCUCCGUUGAAUGGAGUUUAUCAUG [C32U G83U G126A]	-4.19
GGAUCUUCUCGAUCUAACAAAAAAGACAAAUUUGCCACAAAGCUUGAGAGCAUCUUCGGAUGCAGAGGCGGCAGCCUUCGGUGGCGCAAUAGCGCCAACGUUCUCAACUAUGACACGCAAAACGCGUGCUCCGUUGAAUGGAGUGUAUCAUG [C32U G88A U145G]	≤ -4.2
GGAUCUUCUCGAUCUAACAAAAAAGACAAAUUAGCCACAAAGCUUGAGAGCAUCUUCGGAUGCAGAGGCGGCAGCCUUCGGUGGCGCGAUAGCGCCAACGUUCUCAACUAUGACACGCAAAACGCGUGCUCCGUUGAAUGGAGUUUAUCAAG [C32U U33A U151A]	-4.18
GGAUCUUCUCGAUCUAACAAAAAAGACAAAUUGGCCACAAAGCUUGAGAGCAUCUUCGGAACCAGAGGCGGCAGCCUUCGGUCGCGCGAUAGCGAGAACGUUCUAACCGAUGACACGCAAAACACGUGCUCCGUUGAAUCGAGUUUAUCAUG [C32U U33G U61A G62C G83C C95A C96G C105A A107C U109G G124A G140C]	≤ -4.2
GGAUCUUCUCGAUCUAACAAAAAAGACAAAUUUGCCACAAAGCUUGAGAGCAUCGUCGGAUGCAGACGCGGCAGCCUUCGGUGACGCGAUAGCGCCAACGUUCUCAACUAUGUCACGCAAAACGCGUGCUCCGUUGAAUGGAGUUUAUCAUG [C32U U55G G67C G84A A113U]	≤ -4.2
GGAUCUUCUCGAUCUAACAAAAAAGACAAAUUUGCCACAAAGCUUGAGAGCAUCUACGGAUGCAGAGGCGGCAGCCUUCGGUGGCGCGAUAGCGCCAAGGUUCUCAACUAUGACACGCAAAACGCGUGCUCCGUUGAAUGGAGUUUAGCAUG [C32U U56A C99G U148G]	≤ -4.2
GGAUCUUCUCGAUCUAACAAAAAAGACAAAUUUGCCACAAAGCUUGAGAGCAUCUUCGGAAGCAGAGGCGGCAUCCUUCGGUGGCGCGAUAGCGCCAAGGUUCUCAACUAUGACACGCAAAACGCGUGCUCCGUUGAAUGGAGUUUAUCAUG [C32U U61A G74U C99G]	≤ -4.2
GGAUCUUCUCGAUCUAACAAAAAAGACAAAUUUGCCACAAAGCUUGAGAGCAUCUUCGGAAGCAGAGGCGGCAGCCUUCGGUGGCGCACUAGCGCGAUCGUUCUCAUCUAUGACACGCAAAACGCGUGCUCCGUUGAAUGGAGUUUAUCAUG [C32U U61A G88A A89C C96G A98U A107U]	≤ -4.2
